{"source": "PubChem BioAssay AID2546", "about": "(National Center for Advancing Translational Sciences (NCATS), 2010)", "note": "About 11,000 (3.5%) of roughly 310,000 compounds were called active. Inconclusive results (about 8%) are left out. The call rests on the fitted dose curve; in most records, active means well fitted inhibition curve with a large enough effect; inconclusive means small, poorly fitted or top-dose-only effect, or effect the other way; inactive means flat fitted curve, though single readings scatter. Only a part is listed here, and it is no random draw. On the % scale 0 is the no-effect control and ±100 the full control effect; potency means the concentration at half of the fitted maximal effect.", "data": [{"assay": "VP16 counterscreen qHTS for inhibitors of ROR gamma transcriptional activity;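 further: Gal4-VP16 expression switched on by copper sulfate through the metallothionein promoter; nearly all actives have a fitted effect of over 50% in size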", "details": "Drosophila S2 Gal4-VP16 UAS-luciferase, luminescence, 20 h; series mostly up to 53.6 µM; activity, negative = inhibition: at the top concentration", "values": [{"smiles": "CC(/C=C/c1ccco1)=N\\NC(=O)COc1ccc(C)c(C)c1", "Potency": "active: 8.91 µM"}, {"smiles": "COc1ccc(-c2n[nH]c(=S)n2Cc2ccccc2)cc1", "Potency": "active: 7.08 µM"}, {"smiles": "COc1cc2nc(N3CCN(C(=O)[C@@H]4COc5ccccc5O4)CC3)nc(N)c2cc1OC", "activity, negative = inhibition": "inactive: -8.38% [at 17 µM]"}, {"smiles": "CCOC(=O)N1CC=C2C(C#N)=C(N)C(C#N)(C#N)[C@H](c3cccs3)[C@H]2C1", "activity, negative = inhibition": "inactive: 1.75%"}, {"smiles": "Cc1ccc(S(=O)(=O)NCCC(=O)Nc2ccc(Cl)c(Cl)c2)cc1C", "Potency": "active: 11.2 µM"}, {"smiles": "CC(C)(C)CN1C(N)=NC[C@@H]1Cc1ccc(O)cc1", "activity, negative = inhibition": "inactive: 4.55%"}, {"smiles": "Cc1ccc(C(=O)N/C(=C/c2ccc(-c3cccc([N+](=O)[O-])c3)o2)C(=O)NC(C)(C)C)cc1", "activity, negative = inhibition": "inactive: -18.3%"}, {"smiles": "CC(C)(C)c1ccc(-n2ncc3c2CCCC3NC(=O)C2(C(N)=O)CC2)cc1", "note": "(centres undefined)", "Potency": "active: 2.51 µM"}, {"smiles": "COc1ccc2c(c1)O[C@H](c1ccc3c(c1)OCO3)[C@@H](OC(=O)N[C@H](C)C1CCCCC1)C2=O", "activity, negative = inhibition": "inactive: -2%"}, {"smiles": "Cc1nn(-c2cccc(Cl)c2)c(Cl)c1/C=N/NC(=O)c1cccs1", "Potency": "active: 12.6 µM"}, {"smiles": "CC(/C=N/NC(=O)CSc1nc(C)cc(C)n1)=C\\c1ccccc1", "activity, negative = inhibition": "inactive: 2.15%"}, {"smiles": "Cc1nn(Cc2n[nH]c(=S)n2Cc2ccccc2)c(C)c1Cl", "Potency": "active: 20 µM"}, {"smiles": "CC[C@@H]1CC=C[C@H]2[C@H]1C(=O)N(Cc1ccccc1)[C@H]2c1ccc(OC)c(Cl)c1", "activity, negative = inhibition": "inactive: 7.63%"}, {"smiles": "C=C1c2cccc(O)c2C(O)=C2C(=O)[C@]3(O)C(O)=C(C(N)=O)C(=O)[C@@H](N(C)C)[C@@H]3[C@@H](O)[C@H]12", "activity, negative = inhibition": "inactive: -4.97%"}, {"smiles": "COc1ccc(SC[C@H](CC(C)C)N2CCN(CCc3ccccc3)CCC2=O)cc1", "activity, negative = inhibition": "inactive: 18%"}, {"smiles": "COc1ccc2ccc3c(c2c1)N=CC1(O3)N(C)c2ccccc2C1(C)C", "note": "(centres undefined)", "activity, negative = inhibition": "inactive: 10.8%"}, {"smiles": "CN1CCN(CCC=C2c3ccccc3Sc3ccc(S(=O)(=O)N(C)C)cc32)CC1", "activity, negative = inhibition": "inactive: -29.1%"}, {"smiles": "COc1ccc(C2/C=C\\CN(C(=O)c3ccc(C)cc3)CC(=O)N2Cc2ccc(F)cc2)cc1", "note": "(centres undefined)", "activity, negative = inhibition": "inactive: -9.25%"}, {"smiles": "CC(=O)/C=C(/C)NC(Cc1c[nH]c2ccccc12)C(=O)O", "note": "(centres undefined)", "activity, negative = inhibition": "inactive: -3.6%"}, {"smiles": "CC1(C)CC2CC(C)(CN2C(=S)NC(=O)c2ccccc2Cl)C1", "note": "(centres undefined)", "Potency": "active: 1 µM"}, {"smiles": "CCOc1ccc(N/C(C)=C/C(=O)c2ccc3c(c2)OCCO3)cc1", "activity, negative = inhibition": "inactive: 0.187%"}, {"smiles": "Oc1cccc(-c2nc3ccccc3s2)c1", "Potency": "active: 10 µM"}, {"smiles": "COc1ccc(-c2cc(=O)c3cc(C)ccc3[nH]2)cc1", "activity, negative = inhibition": "inactive: -13.3% [at 96.6 µM]"}, {"smiles": "C=C(CC1([C@@H](NP(=O)(c2ccccc2)c2ccccc2)[C@H]2C[C@@H]2CCCC)CC1)c1ccccc1", "activity, negative = inhibition": "inactive: -18.6%"}, {"smiles": "CC(C)c1ccc2c(c1)CCC1C(C)(CN)CCCC21C", "note": "(centres undefined)", "activity, negative = inhibition": "inactive: 3.02%"}, {"smiles": "Nc1nonc1-n1nnc(C(=O)N/N=C/c2cccs2)c1CSc1ccccc1", "Potency": "active: 5.01 µM"}, {"smiles": "COc1cc2c(cc1NC(=O)COC(=O)C1CC(=O)N(Cc3ccco3)C1)oc1ccccc12", "note": "(centres undefined)", "Potency": "active: 7.94 µM"}, {"smiles": "CCOC(=O)C1CCN(CC(=O)Nc2c(C(=O)OC)[nH]c3ccc(Cl)cc23)CC1", "Potency": "active: 10 µM"}, {"smiles": "N#C/C(=C\\c1ccc([N+](=O)[O-])o1)c1nc2ccccc2[nH]1", "Potency": "active: 1.58 µM"}, {"smiles": "COc1cc2c(c(OC)c1OC)-c1c(cc(OC)c(OC)c1OC)C[C@H](C)[C@H](C)C2", "activity, negative = inhibition": "inactive: -12.3%"}, {"smiles": "CCN(CC)C(=O)/C(=C\\c1ccc2c(c1)OCO2)NC(=O)c1ccc(Br)cc1", "activity, negative = inhibition": "inactive: -3.06%"}, {"smiles": "CCc1cc2c(nc1CC)CCN(CC/C(C)=N/OC[C@H]1O[C@H](c3ccccc3)C=C[C@@H]1Oc1ccc(OC)cc1)C2", "activity, negative = inhibition": "inactive: -0.952% [at 10 µM]"}, {"smiles": "NC1=NC(=O)/C(=C\\c2cccs2)S1", "activity, negative = inhibition": "inactive: -2.13% [at 0.365 µM]"}, {"smiles": "C[C@H]1CCC[C@]2(O[C@@H](CCO)C[C@H](O)[C@H]2O)O1", "activity, negative = inhibition": "inactive: -6.98%"}, {"smiles": "CC[C@]1([C@H]2O[C@@H]([C@@H]3O[C@](O)(CO)[C@@H](C)C[C@H]3C)C[C@H]2C)CC[C@@H]([C@]2(C)CC[C@@]3(C[C@@H](O)[C@@H](C)[C@@H]([C@H](C)[C@H](OC)[C@H](C)C(=O)O)O3)O2)O1", "activity, negative = inhibition": "inactive: -16.1% [at 17 µM]"}, {"smiles": "CCC(=O)NC(c1ccc(C)cc1)c1cc([N+](=O)[O-])c2cccnc2c1O", "note": "(centres undefined)", "Potency": "active: 2.82 µM"}, {"smiles": "Nc1c(-c2ccccc2)cnc2c(-c3ccccc3)cnn12", "Potency": "active: 7.08 µM"}, {"smiles": "CC1(COc2ccc(C[C@H]3SC(=O)NC3=O)cc2)CCCCC1", "activity, negative = inhibition": "inactive: -21.1%"}, {"smiles": "O=Nc1c(-c2ccccc2)[nH]n(-c2ccccc2)c1=O", "Potency": "active: 15.8 µM"}]}]}
